# Assay results from the supplement of paper PMC8728848.
# The other results are listed elsewhere or left out.
# Tests used:
# Assay in all cases: glycan array binding signal (z-score within array); higher = stronger binding
# Details in all cases: glycan notation: IUPAC condensed, linker removed
# [1] = target: Man(a1-2)Man(a1-2)Man(a1-3)Man
# Procedure, shortened: (§1)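 The binding signal is a Z-score computed within each array. Data were drawn from 3228 arrays in the Consortium for Functional Glycomics database, restricted to those with a known protein sequence. Scores were averaged over arrays of the same protein sequence at different concentrations or buffers, and over linkers, and negative values can be taken as non-binding.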
# [2] = target: Man(a1-2)Man(a1-2)Man(a1-6)[Man(a1-3)]Man
# Procedure, shortened: as §1
# [3] = target: Man(a1-2)Man(a1-3)Man
# Procedure, shortened: as §1
# [4] = target: Man(a1-2)Man(a1-3)[Man(a1-2)Man(a1-6)]Man
# Procedure, shortened: as §1
# [5] = target: Man(a1-2)Man(a1-3)[Man(a1-2)Man(a1-6)]Man(a1-6)[Man(a1-2)Man(a1-2)Man(a1-3)]Man
# Procedure, shortened: as §1
# [6] = target: Man(a1-2)Man(a1-3)[Man(a1-2)Man(a1-6)]Man(a1-6)[Man(a1-2)Man(a1-2)Man(a1-3)]Man(b1-4)GlcNAc(b1-4)GlcNAc
# Procedure, shortened: as §1
# [7] = target: Man(a1-2)Man(a1-3)[Man(a1-6)]Man(a1-6)[Man(a1-2)Man(a1-3)]Man(b1-4)GlcNAc(b1-4)GlcNAc
# Procedure, shortened: as §1
# [8] = target: Man(a1-2)Man(a1-6)[Man(a1-3)]Man(a1-6)[Man(a1-2)Man(a1-2)Man(a1-3)]Man
# Procedure, shortened: as §1
# [9] = target: Man(a1-2)Man(a1-6)[Man(a1-3)]Man(a1-6)[Man(a1-2)Man(a1-2)Man(a1-3)]Man(b1-4)GlcNAc(b1-4)GlcNAc
# Procedure, shortened: as §1
# [10] = target: Man(a1-3)[Man(a1-6)]Man
# Procedure, shortened: as §1
# [11] = target: Man(a1-3)[Man(a1-6)]Man(a1-6)[Man(a1-2)Man(a1-3)]Man(b1-4)GlcNAc(b1-4)GlcNAc
# Procedure, shortened: as §1
# [12] = target: Man(a1-3)[Man(a1-6)]Man(a1-6)[Man(a1-3)]Man
# Procedure, shortened: as §1
# [13] = target: Man(a1-3)[Man(a1-6)]Man(a1-6)[Man(a1-3)]Man(b1-4)GlcNAc(b1-4)GlcNAc
# Procedure, shortened: as §1
# [14] = target: Man(a1-3)[Man(a1-6)]Man(b1-4)GlcNAc(b1-4)GlcNAc
# Procedure, shortened: as §1
# [15] = target: Man(a1-3)[Man(a1-6)]Man(b1-4)GlcNAc(b1-4)[Fuc(a1-6)]GlcNAc
# Procedure, shortened: as §1
# [16] = target: Man(a1-6)Man
# Procedure, shortened: as §1
# [17] = target: Man(b1-4)GlcNAc
# Procedure, shortened: as §1
# [18] = target: MurNAc(b1-4)GlcNAc
# Procedure, shortened: as §1
# [19] = target: Neu5Ac(a2-3)Gal
# Procedure, shortened: as §1
# [20] = target: Neu5Ac(a2-3)Gal(b1-3)GalNAc
# Procedure, shortened: as §1
# [21] = target: Neu5Ac(a2-3)Gal(b1-3)GalNAc(b1-3)Gal(a1-4)Gal(b1-4)Glc
# Procedure, shortened: as §1
# [22] = target: Neu5Ac(a2-3)Gal(b1-3)GalNAc(b1-4)[Neu5Ac(a2-3)]Gal(b1-4)Glc
# Procedure, shortened: as §1
# [23] = target: Neu5Ac(a2-3)Gal(b1-3)GalNAc(b1-4)[Neu5Ac(a2-8)Neu5Ac(a2-3)]Gal(b1-4)Glc
# Procedure, shortened: as §1
# [24] = target: Neu5Ac(a2-3)Gal(b1-3)GalNAc6S
# Procedure, shortened: as §1
# [25] = target: Neu5Ac(a2-3)Gal(b1-3)GlcNAc
# Procedure, shortened: as §1
# [26] = target: Neu5Ac(a2-3)Gal(b1-3)GlcNAc(b1-2)Man
# Procedure, shortened: as §1
# [27] = target: Neu5Ac(a2-3)Gal(b1-3)GlcNAc(b1-2)Man(a1-3)[GlcNAc(b1-4)][Neu5Ac(a2-3)Gal(b1-3)GlcNAc(b1-2)Man(a1-6)]Man(b1-4)GlcNAc(b1-4)GlcNAc
# Procedure, shortened: as §1
# [28] = target: Neu5Ac(a2-3)Gal(b1-3)GlcNAc(b1-2)Man(a1-3)[Neu5Ac(a2-3)Gal(b1-3)GlcNAc(b1-2)Man(a1-6)]Man(b1-4)GlcNAc(b1-4)GlcNAc
# Procedure, shortened: as §1
# [29] = target: Neu5Ac(a2-3)Gal(b1-3)GlcNAc(b1-3)Gal(b1-3)GlcNAc
# Procedure, shortened: as §1
# [30] = target: Neu5Ac(a2-3)Gal(b1-3)GlcNAc(b1-3)Gal(b1-4)GlcNAc
# Procedure, shortened: as §1
# [31] = target: Neu5Ac(a2-3)Gal(b1-3)GlcNAc(b1-3)GalNAc
# Procedure, shortened: as §1
# [32] = target: Neu5Ac(a2-3)Gal(b1-3)GlcNAc(b1-4)Gal(b1-4)Glc
# Procedure, shortened: as §1
# [33] = target: Neu5Ac(a2-3)Gal(b1-3)GlcNAc(b1-6)GalNAc
# Procedure, shortened: as §1
# [34] = target: Neu5Ac(a2-3)Gal(b1-3)GlcNAc6S
# Procedure, shortened: as §1
# [35] = target: Neu5Ac(a2-3)Gal(b1-3)[Fuc(a1-4)]GlcNAc
# Procedure, shortened: as §1
# [36] = target: Neu5Ac(a2-3)Gal(b1-3)[Fuc(a1-4)]GlcNAc(b1-3)Gal(b1-3)[Fuc(a1-4)]GlcNAc
# Procedure, shortened: as §1
# [37] = target: Neu5Ac(a2-3)Gal(b1-3)[Fuc(a1-4)]GlcNAc(b1-3)Gal(b1-4)[Fuc(a1-3)]GlcNAc
# Procedure, shortened: as §1
# [38] = target: Neu5Ac(a2-3)Gal(b1-3)[GlcNAc(b1-6)]GalNAc
# Procedure, shortened: as §1
# [39] = target: Neu5Ac(a2-3)Gal(b1-3)[Neu5Ac(a2-3)Gal(b1-4)]GlcNAc
# Procedure, shortened: as §1
# [40] = target: Neu5Ac(a2-3)Gal(b1-3)[Neu5Ac(a2-6)]GalNAc
# Procedure, shortened: as §1
# [41] = target: Neu5Ac(a2-3)Gal(b1-3)[Neu5Ac(a2-6)]GlcNAc(b1-3)[Fuc(a1-3)[Gal(b1-4)]GlcNAc(b1-6)]Gal(b1-4)Glc
# Procedure, shortened: as §1
# [42] = target: Neu5Ac(a2-3)Gal(b1-3)]Neu5Ac(a2-3)Gal(b1-4)]GlcNAc
# Procedure, shortened: as §1
# [43] = target: Neu5Ac(a2-3)Gal(b1-4)Glc
# Procedure, shortened: as §1
# [44] = target: Neu5Ac(a2-3)Gal(b1-4)GlcNAc
# Procedure, shortened: as §1
# [45] = target: Neu5Ac(a2-3)Gal(b1-4)GlcNAc(b1-2)Man
# Procedure, shortened: as §1
binder,measurement,setting,value
"PA-IL (Pseudomonas aeruginosa), Q05097 (protein) MAWKGEVLANNEAGQVTSIIYNPGDVITIVAAGWASYGPTQKWGPQGDREHPDQGLICHDAFCGALVMKIGNSGTIPVNTGLFRWVAPNNVQGAITLIYNDVPGTYGNNSGSFSVNIGKDQS",glycan array binding signal (z-score),[1],-0.229
same,glycan array binding signal (z-score),[2],-0.218
same,glycan array binding signal (z-score),[3],-0.226
same,glycan array binding signal (z-score),[4],-0.217
same,glycan array binding signal (z-score),[5],-0.234
same,glycan array binding signal (z-score),[6],-0.191
same,glycan array binding signal (z-score),[7],-0.229
same,glycan array binding signal (z-score),[8],-0.227
same,glycan array binding signal (z-score),[9],-0.244
same,glycan array binding signal (z-score),[10],-0.225
same,glycan array binding signal (z-score),[11],0.053
same,glycan array binding signal (z-score),[12],-0.227
same,glycan array binding signal (z-score),[13],-0.228
same,glycan array binding signal (z-score),[14],-0.211
same,glycan array binding signal (z-score),[15],-0.23
same,glycan array binding signal (z-score),[16],-0.219
same,glycan array binding signal (z-score),[17],-0.221
same,glycan array binding signal (z-score),[18],-0.238
same,glycan array binding signal (z-score),[19],-0.213
same,glycan array binding signal (z-score),[20],-0.233
same,glycan array binding signal (z-score),[21],-0.229
same,glycan array binding signal (z-score),[22],-0.243
same,glycan array binding signal (z-score),[23],-0.227
same,glycan array binding signal (z-score),[24],-0.231
same,glycan array binding signal (z-score),[25],-0.225
same,glycan array binding signal (z-score),[26],-0.214
same,glycan array binding signal (z-score),[27],-0.239
same,glycan array binding signal (z-score),[28],-0.239
same,glycan array binding signal (z-score),[29],-0.234
same,glycan array binding signal (z-score),[30],-0.228
same,glycan array binding signal (z-score),[31],-0.215
same,glycan array binding signal (z-score),[32],-0.22
same,glycan array binding signal (z-score),[33],-0.238
same,glycan array binding signal (z-score),[34],-0.217
same,glycan array binding signal (z-score),[35],-0.23
same,glycan array binding signal (z-score),[36],-0.216
same,glycan array binding signal (z-score),[37],-0.215
same,glycan array binding signal (z-score),[38],-0.233
same,glycan array binding signal (z-score),[39],-0.218
same,glycan array binding signal (z-score),[40],-0.226
same,glycan array binding signal (z-score),[41],-0.229
same,glycan array binding signal (z-score),[42],-0.237
same,glycan array binding signal (z-score),[43],-0.207
same,glycan array binding signal (z-score),[44],-0.228
same,glycan array binding signal (z-score),[45],-0.19
